Experimental data: publication PMC4323006
No constants are given. Whether binding was seen depends on the method and setting. In cells and extracts the contact can be indirect. Some results given as binding are weak or reduced against the parent protein; the word gives no strength. For some assays here: Tags and fused reporters may be left off the sequences shown.

The chains behind the UniProt entries cited, without tags or fusion partners.
UniProt P40337: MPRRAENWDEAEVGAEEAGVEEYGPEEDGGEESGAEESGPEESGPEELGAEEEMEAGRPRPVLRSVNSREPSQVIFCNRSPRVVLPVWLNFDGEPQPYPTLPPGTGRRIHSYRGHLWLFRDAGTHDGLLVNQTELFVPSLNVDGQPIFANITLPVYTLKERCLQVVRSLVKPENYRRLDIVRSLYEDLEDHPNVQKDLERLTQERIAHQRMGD
UniProt Q16665: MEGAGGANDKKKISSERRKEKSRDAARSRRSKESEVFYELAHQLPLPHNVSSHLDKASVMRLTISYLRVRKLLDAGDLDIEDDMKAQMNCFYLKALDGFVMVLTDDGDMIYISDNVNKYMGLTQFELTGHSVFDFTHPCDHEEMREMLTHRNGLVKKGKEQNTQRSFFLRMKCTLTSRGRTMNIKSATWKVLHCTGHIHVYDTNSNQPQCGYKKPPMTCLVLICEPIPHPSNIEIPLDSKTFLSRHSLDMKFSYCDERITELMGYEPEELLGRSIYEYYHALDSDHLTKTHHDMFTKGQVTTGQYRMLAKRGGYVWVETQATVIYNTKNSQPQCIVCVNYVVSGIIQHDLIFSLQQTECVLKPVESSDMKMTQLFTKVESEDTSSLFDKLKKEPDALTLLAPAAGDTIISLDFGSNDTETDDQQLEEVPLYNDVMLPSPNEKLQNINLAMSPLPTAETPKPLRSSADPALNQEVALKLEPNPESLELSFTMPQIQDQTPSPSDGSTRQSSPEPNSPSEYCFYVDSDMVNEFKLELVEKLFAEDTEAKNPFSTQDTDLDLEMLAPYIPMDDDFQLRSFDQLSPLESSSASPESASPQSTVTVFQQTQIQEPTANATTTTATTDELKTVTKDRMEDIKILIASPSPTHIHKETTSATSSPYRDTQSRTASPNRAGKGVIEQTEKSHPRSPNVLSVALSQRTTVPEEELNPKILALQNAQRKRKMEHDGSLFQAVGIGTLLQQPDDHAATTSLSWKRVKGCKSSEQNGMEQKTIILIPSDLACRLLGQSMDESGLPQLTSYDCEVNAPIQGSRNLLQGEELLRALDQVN
UniProt Q9GZT9: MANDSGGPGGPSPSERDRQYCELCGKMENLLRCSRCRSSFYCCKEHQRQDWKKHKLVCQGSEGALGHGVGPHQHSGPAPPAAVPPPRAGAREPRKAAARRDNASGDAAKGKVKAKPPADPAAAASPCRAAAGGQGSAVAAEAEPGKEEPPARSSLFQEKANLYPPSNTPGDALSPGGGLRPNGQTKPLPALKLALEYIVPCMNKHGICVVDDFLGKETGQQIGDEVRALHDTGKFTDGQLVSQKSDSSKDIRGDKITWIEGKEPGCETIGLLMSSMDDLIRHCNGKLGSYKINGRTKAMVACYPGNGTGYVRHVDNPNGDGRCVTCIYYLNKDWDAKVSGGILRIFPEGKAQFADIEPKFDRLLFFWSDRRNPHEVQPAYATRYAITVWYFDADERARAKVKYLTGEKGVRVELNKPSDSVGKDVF

Assays:
[1] = biological target: T1, Phospholipase D1 (PLD1), wild type (UniProt Q13393); assay: co-IP; HEK293 cells cultured under hypoxic conditions (1% O2) before immunoprecipitation
T1 sequence: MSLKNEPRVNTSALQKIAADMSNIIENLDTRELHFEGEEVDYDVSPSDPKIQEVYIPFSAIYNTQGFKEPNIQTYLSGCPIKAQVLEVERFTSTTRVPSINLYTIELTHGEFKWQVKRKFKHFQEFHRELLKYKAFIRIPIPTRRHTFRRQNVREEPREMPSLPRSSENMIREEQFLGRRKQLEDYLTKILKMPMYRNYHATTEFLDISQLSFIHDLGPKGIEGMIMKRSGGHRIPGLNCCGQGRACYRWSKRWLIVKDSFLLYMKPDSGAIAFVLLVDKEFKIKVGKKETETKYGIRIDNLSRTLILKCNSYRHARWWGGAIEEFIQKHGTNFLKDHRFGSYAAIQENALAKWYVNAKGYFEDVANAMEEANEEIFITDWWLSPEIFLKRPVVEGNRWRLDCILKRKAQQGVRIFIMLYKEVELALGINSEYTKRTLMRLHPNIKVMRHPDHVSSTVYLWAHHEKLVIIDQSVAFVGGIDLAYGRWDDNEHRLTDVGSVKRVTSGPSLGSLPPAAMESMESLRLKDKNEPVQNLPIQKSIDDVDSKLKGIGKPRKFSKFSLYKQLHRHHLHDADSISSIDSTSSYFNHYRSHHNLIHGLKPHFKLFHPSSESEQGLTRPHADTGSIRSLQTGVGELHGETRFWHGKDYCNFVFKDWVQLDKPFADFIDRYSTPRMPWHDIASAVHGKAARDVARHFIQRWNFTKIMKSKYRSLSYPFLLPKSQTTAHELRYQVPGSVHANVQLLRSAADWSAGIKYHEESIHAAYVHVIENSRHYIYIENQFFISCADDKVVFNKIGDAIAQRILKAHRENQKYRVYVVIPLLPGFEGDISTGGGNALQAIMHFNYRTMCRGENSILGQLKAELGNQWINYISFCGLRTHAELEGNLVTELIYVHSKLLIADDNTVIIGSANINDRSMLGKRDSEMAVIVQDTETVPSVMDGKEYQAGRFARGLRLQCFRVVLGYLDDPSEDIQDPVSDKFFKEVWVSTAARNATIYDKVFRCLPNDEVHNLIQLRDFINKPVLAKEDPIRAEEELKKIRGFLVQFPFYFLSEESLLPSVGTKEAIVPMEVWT

[2] = biological target: T1, Phospholipase D1 (PLD1), wild type; assay: co-IP; peptide competition: biotinylated hydroxylated or non-hydroxylated HIF-1α peptide (556-574) added to the immunoprecipitation mixture of cell lysates, MG132; the pairs that are blocked
[3] = biological target: T1, Phospholipase D1 (PLD1), wild type; assay: co-IP; HEK293 lysates (passive-lysis buffer, gentle sonication), antibody with protein A sepharose beads, immunoblot; normoxia, many panels with MG132; some panels with co-expressed PLD1, PLD1-PH, PHD2 or VHL or with DFX; for PLD1-PH under normoxia and hypoxia
[4] = biological target: T2, Endogenous PLD1 (human (endogenous in HEK293)) (UniProt Q13393); assay: as above
T2 sequence: T1 sequence

[5] = biological target: T3, GST-PLD1-PH (pleckstrin homology domain of PLD1, 217-331) (UniProt Q13393); assay: pull-down; panel of GST-PLD1 fragments on glutathione-sepharose 4B beads mixed with cell lysates or in vitro-translated proteins (which is not stated), 4°C, 1 h, washed five times with PBS containing 1% triton-X 100; only the target purified
T3 sequence: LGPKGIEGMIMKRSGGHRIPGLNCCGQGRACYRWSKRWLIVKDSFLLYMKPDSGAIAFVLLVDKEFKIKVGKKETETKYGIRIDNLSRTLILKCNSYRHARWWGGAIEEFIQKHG

[6] = biological target: T4, GST-PLD1 F2 region (331-497) (UniProt Q13393); assay: as above
T4 sequence: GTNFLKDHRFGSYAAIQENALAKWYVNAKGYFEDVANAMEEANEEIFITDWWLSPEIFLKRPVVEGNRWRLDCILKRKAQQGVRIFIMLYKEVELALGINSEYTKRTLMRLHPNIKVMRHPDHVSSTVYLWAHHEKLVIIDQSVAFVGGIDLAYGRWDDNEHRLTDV

[7] = biological target: T3, GST-PLD1-PH (pleckstrin homology domain of PLD1, 217-331); assay: pull-down; GST fusion on glutathione-sepharose 4B beads mixed with in vitro-translated protein, 4°C, 1 h, washed five times with PBS containing 1% triton-X 100; only the target purified
[8] = biological target: T2, Endogenous PLD1 (human (endogenous in HEK293)); assay: co-IP; sequential: HEK293 lysate (MG132) immunoprecipitated with anti-PHD2; released proteins re-immunoprecipitated with antibody to PLD and blotted with anti-HIF-1α

von Hippel-Lindau protein (HA-VHL), wild type (from UniProt P40337 1-213)
binding [1]: no binding (condition: under hypoxia (1% O2))
binding [2]: binds
binding [3]: binds
binding [4]: binds

VHL (prey of the GST pull-down of Figure 3G) (from UniProt P40337 1-213)
binding [5]: binds
binding [6]: binds

In vitro-translated HA-HIF-1α (from UniProt Q16665 1-826)
binding [7]: binds

Endogenous HIF-1α (from UniProt Q16665 1-826)
binding [8]: binds

HIF-1α (source not stated for the experiment) (from UniProt Q16665 1-826)
binding [5]: binds

PHD2 (prey of the GST pull-down of Figure 2J) (from UniProt Q9GZT9 1-426) (enzyme)
binding [5]: binds
binding [6]: binds
